Reference: publication PMC4336329 (PLoS ONE, 2015)
Hit rate of the full screen: of about 310,000 compounds, about 14,000 (4.5%) showed an effect of 50% or more. Effects have a minus sign here. This is one part of the list.

Biological target: human ether-à-go-go-related gene (hERG) potassium channel (human, UniProt Q12809)
Experiment: primary screen, population patch clamp on CHO cells stably expressing hERG
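Further: peak tail current of the secondary pulse compared with the same well before compound.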

human ether-à-go-go-related gene (hERG) potassium channel, sequence (Q12809 whole entry, looked up): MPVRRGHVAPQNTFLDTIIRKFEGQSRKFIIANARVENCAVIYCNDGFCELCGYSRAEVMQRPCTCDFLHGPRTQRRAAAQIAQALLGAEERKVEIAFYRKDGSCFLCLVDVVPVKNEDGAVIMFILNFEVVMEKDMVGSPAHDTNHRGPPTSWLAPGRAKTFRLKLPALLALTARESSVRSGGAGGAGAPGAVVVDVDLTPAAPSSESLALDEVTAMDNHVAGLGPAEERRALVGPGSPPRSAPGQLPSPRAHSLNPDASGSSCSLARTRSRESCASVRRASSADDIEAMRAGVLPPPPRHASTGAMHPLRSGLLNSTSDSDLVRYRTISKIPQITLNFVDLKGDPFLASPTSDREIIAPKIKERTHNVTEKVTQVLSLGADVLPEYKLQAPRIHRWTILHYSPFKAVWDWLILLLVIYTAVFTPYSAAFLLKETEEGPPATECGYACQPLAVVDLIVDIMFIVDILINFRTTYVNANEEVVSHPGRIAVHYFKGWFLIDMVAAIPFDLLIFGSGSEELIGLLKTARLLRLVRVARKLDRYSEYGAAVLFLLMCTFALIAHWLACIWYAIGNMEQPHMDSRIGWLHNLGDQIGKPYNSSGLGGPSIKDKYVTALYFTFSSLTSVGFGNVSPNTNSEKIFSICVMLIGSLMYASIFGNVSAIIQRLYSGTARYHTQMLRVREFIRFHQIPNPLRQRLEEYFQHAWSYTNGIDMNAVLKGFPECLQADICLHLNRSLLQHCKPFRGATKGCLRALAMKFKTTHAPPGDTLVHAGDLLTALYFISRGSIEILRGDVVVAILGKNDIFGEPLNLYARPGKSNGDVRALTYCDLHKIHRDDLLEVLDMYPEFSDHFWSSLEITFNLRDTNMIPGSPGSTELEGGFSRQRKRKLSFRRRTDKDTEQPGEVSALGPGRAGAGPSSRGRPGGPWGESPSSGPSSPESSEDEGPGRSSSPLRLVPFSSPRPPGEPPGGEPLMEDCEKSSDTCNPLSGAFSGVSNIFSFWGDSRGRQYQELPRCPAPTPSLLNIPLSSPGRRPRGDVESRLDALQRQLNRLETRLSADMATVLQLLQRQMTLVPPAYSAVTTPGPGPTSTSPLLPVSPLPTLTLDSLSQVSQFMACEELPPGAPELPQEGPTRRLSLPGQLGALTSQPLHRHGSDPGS

SMILES | hERG current change (%, negative = inhibition) at 10uM
Cc1ccc2c(c1)nnn2C1CCN(CC(=O)NCc2ccccc2F)CC1 | -59.9%
O=C(Cc1nnc(NC(=O)c2ccccc2)s1)N/N=C\c1ccc(O)c(O)c1 | 23.4%
O=C(CNS(=O)(=O)c1ccc2ccccc2c1)NCCc1ccccn1 | -0.702%
O=c1[nH]c(=O)n(-c2ccccc2)c2c1C(C(F)(F)F)(C(F)(F)F)N=C(C1CCCCC1)N2 | 3.73%
COc1cc(/C=N/NC(=O)c2cc(-c3ccccc3)sc2N)cc(OC)c1OC | 15.4%
COc1ccc(-n2cccc2/C=C2\C(=N)N3N=C(C(C)C)SC3=NC2=O)cc1 | 4.49%
COc1ccc(NC(=O)C/C(C)=N/NC(=O)c2ccncc2)c([N+](=O)[O-])c1 | -59.8%
CCCC[C@@H]1CNC(=S)N1CCC12CC3CC(CC(C3)C1)C2 | 18.9%
COCCNC(=S)N(CCc1c(C)[nH]c2ccc(F)cc12)Cc1ccc(C)cc1 | 8.54%
O=C1CC(N(O)c2ccccc2)C(=O)N1c1cc(Cl)cc(Cl)c1 (stereo not shown) | 16.2%
O=C(CCCN1C(=O)/C(=C/c2ccc(F)cc2)SC1=S)NCCCn1ccnc1 | -71%
O=C(O)CCNC(=S)Nc1cccc(F)c1 | 21.9%
CCc1ccc(NC(=O)Nc2cccs2)cc1 | 23%
CSc1nc(NCc2ccccc2)c2c3c(sc2n1)CN(C)CC3 | -78%
CCOC(=O)c1[nH]c2cc(OC)c(OC)cc2c1NC(=O)CCN1CCSCC1 | 7.85%
CCCCn1c(-c2cccnc2)n[nH]c1=S | 19.9%
CN(C)c1ccc(CNc2ncnc3sccc23)cc1 | -4.33%
CCCN(CCC)CCNC(=O)CCC(=O)Nc1ccc2nc(N3CCOCC3)cc(C)c2c1 | -7.42%
COc1ccccc1NC(=O)CSc1nnc(C)n1Cc1ccccc1 | -34.5%
O=S(=O)(Nc1nc2ccccc2nc1NCc1ccco1)c1cccs1 | 4.13%
COc1ccc(Br)cc1/C=N/NC(=O)c1cc(Br)ccc1O | 22.3%
COc1ccc(-n2c(Cc3cc(=O)[nH]c(=O)[nH]3)nnc2SCc2ccccc2)cc1 | -0.325%

SMILES | hERG current change (%, negative = inhibition) at 10uM
CCN(CC(=O)Nc1ccc(NC(C)=O)cc1)C(=O)c1ccccc1Sc1ccccc1C#N | 23.1%
CC(C)(C)Nc1nc(Cl)nc(NC(C)(C)C)n1 | 5.16%
CCOC(=O)NC(=O)c1cn(Nc2ncc(Cl)cc2C(F)(F)F)c(=O)[nH]c1=O | 2.51%
CN(C)c1nc(-c2ccc([N+](=O)[O-])cc2)cs1 | -5.29%
COc1ccc(C(=O)N(c2ccccn2)C2CCCCC2)c(OC)c1 | 29.1%
C=CCn1c(C(C)NC(=O)C(C)(C)C)nc2ccccc21 (stereo not shown) | 10.7%
O=C(O)Cc1ccc2oc(-c3ccccn3)nc2c1 | 11.9%
CCOC(=O)c1nnn(-c2nonc2N)c1-c1ccc(C)cc1 | -3.94%
Cn1c(O)c(N=NC(=O)c2ccco2)c2ccccc21 | -2.82%
O=C(CSCc1ccc(Cl)cc1)Nc1ccccc1C(=O)N1CCOCC1 | -9.68%
CCOc1cc(/C=C2\SC(=S)N(C(C(=O)O)c3ccccc3)C2=O)ccc1O (stereo not shown) | 11.5%
COc1ccc(/C=C/C(=O)c2cc(Cl)cc(Cl)c2O)c(OC)c1 | 7.36%
CCCNC(=O)c1ccc2c(=O)n(Cc3ccco3)c(=S)[nH]c2c1 | 13.9%
O=C(c1ccc([N+](=O)[O-])cc1)N1CCSC1c1ccc(Cl)cc1 (stereo not shown) | -76.9%
CCOc1ccc(CCNC(=O)COC(=O)CNC(=O)c2ccc(Br)o2)cc1OCC | -40.6%
Cc1cccc(-n2c(-c3cccc([N+](=O)[O-])c3)nc3nc4ccccc4nc32)c1 | -21.7%
COc1ccc(S(=O)(=O)Nc2ccc(NC(C)=O)cc2)cc1OC | 11.2%
CCn1c(COc2ccc(Cl)c(C)c2)nnc1SCC(=O)N1CCCC1 | -18.5%
COc1ccc(C2CC(c3ccccc3)Nc3nc(NS(C)(=O)=O)nn32)cc1 (stereo not shown) | 7.1%
CN(C)CCn1c2c(c(SCC(=O)Nc3cccc4ccccc34)nc1=O)CCCC2 | -40.4%
CCN1C(=O)C(=C/C=C/c2ccco2)C(=O)N(CC)C1=S | -18.5%
